Screen size: about 110,000 compounds; about 230 (0.21%) showed an effect of 50% or more. The list shows a part of the results.

Data on 67 compounds can be found in paper PMC6919601, “Identification of Plasmodium dipeptidyl aminopeptidase allosteric inhibitors by high throughput screening” (PLoS ONE, 2019).
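Further: 30 min substrate incubation versus DMSO and 10 µM JCP410 controls.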

Sequence of DPAP1 (Q8IIJ9 whole entry, looked up): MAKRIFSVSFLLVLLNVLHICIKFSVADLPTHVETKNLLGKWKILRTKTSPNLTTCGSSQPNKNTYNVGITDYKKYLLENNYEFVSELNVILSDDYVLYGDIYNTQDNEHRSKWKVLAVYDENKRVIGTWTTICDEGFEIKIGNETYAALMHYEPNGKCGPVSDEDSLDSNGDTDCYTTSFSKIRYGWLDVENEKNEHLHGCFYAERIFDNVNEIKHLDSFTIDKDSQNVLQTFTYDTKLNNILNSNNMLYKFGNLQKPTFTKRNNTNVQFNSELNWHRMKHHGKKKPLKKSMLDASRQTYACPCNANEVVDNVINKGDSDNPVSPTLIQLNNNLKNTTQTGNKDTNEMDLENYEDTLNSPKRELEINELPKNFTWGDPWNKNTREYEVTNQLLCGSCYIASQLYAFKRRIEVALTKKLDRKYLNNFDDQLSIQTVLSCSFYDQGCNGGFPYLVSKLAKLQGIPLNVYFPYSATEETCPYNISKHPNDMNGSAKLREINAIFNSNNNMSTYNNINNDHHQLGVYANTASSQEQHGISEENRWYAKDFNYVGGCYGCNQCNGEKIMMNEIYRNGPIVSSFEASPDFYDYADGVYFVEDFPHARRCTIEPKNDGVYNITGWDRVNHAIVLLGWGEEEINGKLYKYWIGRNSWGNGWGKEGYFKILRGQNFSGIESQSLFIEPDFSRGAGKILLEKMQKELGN

This assay addresses DPAP1 (Plasmodium falciparum, UniProt Q8IIJ9). The experiment in a line: primary screen, percent inhibition; read by cleavage of a fluorogenic dipeptide substrate; higher = more effect of the substance. More on the design: species or system P. falciparum D10 trophozoite lysates; single well.
With `CCc1nnc(NS(=O)(=O)c2ccc(NC(=O)C34CC5CC(CC(C5)C3)C4)cc2)s1`, the “% Inhibition @ 10 uM” value is listed as -0.424%.

With `O=C1CC(Cc2ccccc2)C(=O)N1CCCn1ccnc1` (stereo not shown), the “% Inhibition @ 10 uM” value is -1.52%.

With `COc1cc(C)c(Cl)c(C)c1S(=O)(=O)N1CCOCC1`, the “% Inhibition @ 10 uM” value was determined as 0.145%.

On to `N#Cc1sc2nc(C3CC3)cc(-c3ccc(F)cc3)c2c1N`, for which the “% Inhibition @ 10 uM” value is listed as -0.736%.

For `CCOc1ccc(Cl)cc1S(=O)(=O)N1CCCCC1`, the “% Inhibition @ 10 uM” value is 1%.

On to `COc1ccc(Cn2c(CCC(=O)NCCC3=CCCCC3)nc3ncccc3c2=O)cc1`, for which the “% Inhibition @ 10 uM” value is on record as -4.24%.

`O=C1OC(c2ccc3c(c2)OCO3)=N/C1=C\c1ccccc1`: the “% Inhibition @ 10 uM” value was -0.48%.

As to `Cc1nc2ccccc2n1/N=C/c1cccnc1`, the “% Inhibition @ 10 uM” value is -3.21%.

Turning to `COc1ccc(-c2nc(C)c(C(C)=O)n2O)cc1OC`, the “% Inhibition @ 10 uM” value is listed as -3.96%.

As for `Cc1ccc(N2CC(C(=O)NCc3cccs3)CC2=O)cc1C` (stereo not shown), the “% Inhibition @ 10 uM” value is reported as 3.56%.

For the compound `CCC1CCCCN1C(=O)c1cc2nc(-c3ccccc3)cc(C(F)(F)F)n2n1` (stereo not shown), the “% Inhibition @ 10 uM” value is recorded as -4.03%.

`COc1cccc(N(CC(=O)N2CCN(c3ccc(F)cc3)CC2)S(=O)(=O)c2ccccc2)c1`: the “% Inhibition @ 10 uM” value is listed as 1.25%.

Regarding `CCOc1ccccc1N1C(=O)C2C3C=C(Cl)C(c4ccccc43)C2C1=O` (stereo not shown), the “% Inhibition @ 10 uM” value is given as 0.983%.

On to `O=c1cc(-c2ccccc2)c2cc(Cl)c3c(c2o1)CN(Cc1ccco1)CO3`, for which the “% Inhibition @ 10 uM” value is -0.808%.

`O=C(Nc1ccn(-c2ccccc2)n1)c1ccco1`: the “% Inhibition @ 10 uM” value was -1.05%.

As for `C/C(=N\O)c1nsc(Nc2ccccc2)n1`, the “% Inhibition @ 10 uM” value was determined as 3.96%.

Turning to `CC(NC(=O)C1CCN(c2nnc(-n3cccc3)s2)CC1)c1ccccc1` (stereo not shown), the “% Inhibition @ 10 uM” value is recorded as -0.522%.

With `COc1ccc(CN2CCN(c3ccccc3C)CC2)cc1Br`, the “% Inhibition @ 10 uM” value is on record as -5.41%.

As to `O=c1c2cnn(-c3ccccc3)c2ncn1Cc1cccc(C(F)(F)F)c1`, the “% Inhibition @ 10 uM” value is reported as -1.75%.

With `CC(C)(C)c1ccc(C(=O)Nc2cccc3ccccc23)cc1`, the “% Inhibition @ 10 uM” value is recorded as -3.66%.

In the case of `CC(=O)N(Cc1ccccc1)C(c1ccccc1)c1ccccc1`, the “% Inhibition @ 10 uM” value came out at 1.83%.

With `COc1ccc(C(CC(=O)O)NC(=O)c2ccccc2Cl)cc1OC` (stereo not shown), the “% Inhibition @ 10 uM” value was -3.27%.

Turning to `COC(=O)c1ccc(CN2CCC(O)CC2)cc1`, the “% Inhibition @ 10 uM” value was -1.78%.

Take `Cc1ccc(NC(=O)C2CCN(S(=O)(=O)c3ccc4[nH]c5c(c4c3)CCCCC5)CC2)nc1`: the “% Inhibition @ 10 uM” value is given as 1.67%.

In the case of `CCN1CCN(C(=O)C2CCN(C(=O)c3cc4sccc4n3CC)CC2)CC1`, the “% Inhibition @ 10 uM” value came to 1.8%.

For the compound `O=C(CCNc1c(N2CCCC2)c(=O)c1=O)NCc1ccc(Cl)cc1`, the “% Inhibition @ 10 uM” value was -1.72%.

Consider `Cc1cccc(C(=O)NCCNC(=O)c2cccc(C)c2)c1`, for which the “% Inhibition @ 10 uM” value is given as -4.71%.

As for `OCCSc1nc2ccccc2s1`, the “% Inhibition @ 10 uM” value is recorded as -1.59%.

As to `O=C(c1cccs1)N1c2ccccc2C=Cc2ccccc21`, the “% Inhibition @ 10 uM” value is reported as 0.605%.

In the case of `COc1cccc(N2CCN(C3CCN(Cc4ccccc4)CC3)CC2)c1`, the “% Inhibition @ 10 uM” value was -0.0648%.

Consider `CC1CC(C)CN(CCCNC(=O)Cn2ncn3cccc3c2=O)C1` (stereo not shown), for which the “% Inhibition @ 10 uM” value is on record as -3.34%.

Take `CCn1nc(C)c(/N=C/c2c(C)nn(-c3ccc(F)cc3)c2O)c1C`: the “% Inhibition @ 10 uM” value amounted to 5.83%.

Take `COc1ccc2c(c1)c(C(C)=O)c(C)n2C`: the “% Inhibition @ 10 uM” value is listed as 1.67%.

`Cc1ccc(CS(=O)Cc2ccc(C(=O)NCc3ccc4c(c3)OCO4)o2)cc1` (stereo not shown): the “% Inhibition @ 10 uM” value is recorded as -1.28%.

For the compound `CCC(C)(c1nnnn1C(/C=C\c1ccc(Cl)cc1Cl)C(C)(C)C)N1CCOCC1` (stereo not shown), the “% Inhibition @ 10 uM” value is -5.38%.

As for `Cc1nc(NC(=O)c2ccc3c(c2)OCO3)sc1C`, the “% Inhibition @ 10 uM” value was determined as 0.751%.

Regarding `Cc1cc2c(n1-c1ccc(C(=O)N3CCN(C)CC3)cc1)CCC(C)C2` (stereo not shown), the “% Inhibition @ 10 uM” value is -3.05%.

Regarding `Cn1c2ccccc2c2nc3ccccc3nc21`, the “% Inhibition @ 10 uM” value turned out to be 1.41%.

`O=C(c1ccc(C2SCC(=O)N2CCc2ccccc2)cc1)N1CCc2ccccc2C1` (stereo not shown): the “% Inhibition @ 10 uM” value is on record as 8.44%.

On to `OC1(c2ccccc2)CCNC2CCCCC21` (stereo not shown), for which the “% Inhibition @ 10 uM” value amounted to 2.69%.

Turning to `CN1CCN(c2c(N)c(=O)oc3ccccc23)CC1`, the “% Inhibition @ 10 uM” value was found to be 1.9%.

On to `COc1ccccc1/C=C/c1nn2c(COc3ccccc3)nnc2s1`, for which the “% Inhibition @ 10 uM” value is given as 20.6%.

As to `C=CCCC(C)(O)C#CCN1CCOCC1` (stereo not shown), the “% Inhibition @ 10 uM” value was -2.51%.

As to `CNC(=O)c1ccc2c(c1)c(C)c(C)n2Cc1cccc(C)c1`, the “% Inhibition @ 10 uM” value is recorded as -1.37%.

Regarding `O=C1C(Cl)=C(Nc2ccccc2)C(=O)N1Cc1ccccc1`, the “% Inhibition @ 10 uM” value was -0.305%.

Consider `Cn1c(C(=O)N2CCOCC2)cc2sc(Cl)cc21`, for which the “% Inhibition @ 10 uM” value is given as -6.68%.

Turning to `Clc1ccc(Nc2nc(-c3ccc(-c4ccccc4)cc3)cs2)cc1`, the “% Inhibition @ 10 uM” value was -7.99%.

In the case of `Cc1sc2ncnc(SCC(=O)Nc3nc(-c4ccccc4)ns3)c2c1C`, the “% Inhibition @ 10 uM” value came out at 3%.

With `CCN(CC)CCN(C(=O)c1ccco1)c1nc2ccc(C)cc2s1`, the “% Inhibition @ 10 uM” value is reported as 0.233%.

For `COc1cccc(C2=NOC(C(=O)NCc3ccccc3)C2)c1OC` (stereo not shown), the “% Inhibition @ 10 uM” value is given as 2.85%.

As to `CCc1ccc(C2C(C#N)=C(C)N=C3CC(c4ccc(Cl)cc4)CC(O)=C32)cc1` (stereo not shown), the “% Inhibition @ 10 uM” value is recorded as -2.2%.

Take `CCCOc1ccc(-c2nc3s/c(=C\c4ccccc4)c(=O)n3n2)cc1`: the “% Inhibition @ 10 uM” value is 5.37%.

On to `COc1ccc(OC)c(-c2cc(C(=O)NCc3cccnc3)no2)c1`, for which the “% Inhibition @ 10 uM” value is -2.47%.

Consider `O=C(CSc1n[nH]c2ncnn12)Nc1ccccn1`, for which the “% Inhibition @ 10 uM” value is on record as -5.36%.

For `CCOC(=O)N1CCN(c2c(NC(C)(C)C)c(=O)c2=O)CC1`, the “% Inhibition @ 10 uM” value is given as 0.277%.

`Cc1c2cnn(CC(=O)NC(C)c3ccccc3)c(=O)c2c(C)n1Cc1ccccc1F` (stereo not shown): the “% Inhibition @ 10 uM” value stood at 2.84%.

As for `CS(=O)(=O)N1CCCC(C(=O)NCCc2ccc(Cl)cc2)C1` (stereo not shown), the “% Inhibition @ 10 uM” value was -4.83%.

On to `C=C(C)c1ccccc1NC(=O)CCN1C(=O)c2ccccc2S1(=O)=O`, for which the “% Inhibition @ 10 uM” value is on record as -17%.

For `O=C(CC1Sc2ccccc2NC1=O)NCc1ccco1` (stereo not shown), the “% Inhibition @ 10 uM” value is on record as -7.17%.

Take `CN1CCC(c2ccc3c(c2)SCc2ccccc2C3=O)CC1`: the “% Inhibition @ 10 uM” value was -3.04%.

With `OCCN1CCN(Cc2ccc(Cl)cc2Cl)CC1`, the “% Inhibition @ 10 uM” value was 1.83%.

On to `Cc1cccc(NC(=O)c2cccc(C(=O)Nc3cccc(C)c3)c2)c1`, for which the “% Inhibition @ 10 uM” value was 3.85%.

Consider `Cc1ccc(CS(=O)(=O)c2ncc(Cl)c(C(=O)Nc3nnc(C)s3)n2)cc1`, for which the “% Inhibition @ 10 uM” value was determined as 4%.

As for `Cc1ccc(S(=O)(=O)N(C)c2ccc(C(=O)N(C)C)cc2)cc1`, the “% Inhibition @ 10 uM” value worked out at 2.22%.

In the case of `S=C1NCCN1CCOc1ccccc1`, the “% Inhibition @ 10 uM” value was -4.74%.

`CCC(Oc1ccccc1)C(=O)NCCc1ccc(S(N)(=O)=O)cc1` (stereo not shown): the “% Inhibition @ 10 uM” value is on record as 0.161%.

In the case of `CC1CCCC(NC(=O)Cn2nc(-c3ccccc3)ccc2=O)C1C` (stereo not shown), the “% Inhibition @ 10 uM” value is reported as 3.79%.
